Experimental findings from publication PMC4336329 (PLoS ONE, 2015) are described below.

Molecules are shown by their SMILES. The whole screen tested about 310,000 compounds, of which about 2,200 (0.71%) showed an effect of 50% or more. The effect is printed as a negative number. The list shows a part of the results.

The target of the assay is human ether-à-go-go-related gene (hERG) potassium channel (human, UniProt Q12809). Nature of the assay: primary screen, population patch clamp on CHO cells stably expressing hERG.
Chain of human ether-à-go-go-related gene (hERG) potassium channel (Q12809 whole entry, looked up): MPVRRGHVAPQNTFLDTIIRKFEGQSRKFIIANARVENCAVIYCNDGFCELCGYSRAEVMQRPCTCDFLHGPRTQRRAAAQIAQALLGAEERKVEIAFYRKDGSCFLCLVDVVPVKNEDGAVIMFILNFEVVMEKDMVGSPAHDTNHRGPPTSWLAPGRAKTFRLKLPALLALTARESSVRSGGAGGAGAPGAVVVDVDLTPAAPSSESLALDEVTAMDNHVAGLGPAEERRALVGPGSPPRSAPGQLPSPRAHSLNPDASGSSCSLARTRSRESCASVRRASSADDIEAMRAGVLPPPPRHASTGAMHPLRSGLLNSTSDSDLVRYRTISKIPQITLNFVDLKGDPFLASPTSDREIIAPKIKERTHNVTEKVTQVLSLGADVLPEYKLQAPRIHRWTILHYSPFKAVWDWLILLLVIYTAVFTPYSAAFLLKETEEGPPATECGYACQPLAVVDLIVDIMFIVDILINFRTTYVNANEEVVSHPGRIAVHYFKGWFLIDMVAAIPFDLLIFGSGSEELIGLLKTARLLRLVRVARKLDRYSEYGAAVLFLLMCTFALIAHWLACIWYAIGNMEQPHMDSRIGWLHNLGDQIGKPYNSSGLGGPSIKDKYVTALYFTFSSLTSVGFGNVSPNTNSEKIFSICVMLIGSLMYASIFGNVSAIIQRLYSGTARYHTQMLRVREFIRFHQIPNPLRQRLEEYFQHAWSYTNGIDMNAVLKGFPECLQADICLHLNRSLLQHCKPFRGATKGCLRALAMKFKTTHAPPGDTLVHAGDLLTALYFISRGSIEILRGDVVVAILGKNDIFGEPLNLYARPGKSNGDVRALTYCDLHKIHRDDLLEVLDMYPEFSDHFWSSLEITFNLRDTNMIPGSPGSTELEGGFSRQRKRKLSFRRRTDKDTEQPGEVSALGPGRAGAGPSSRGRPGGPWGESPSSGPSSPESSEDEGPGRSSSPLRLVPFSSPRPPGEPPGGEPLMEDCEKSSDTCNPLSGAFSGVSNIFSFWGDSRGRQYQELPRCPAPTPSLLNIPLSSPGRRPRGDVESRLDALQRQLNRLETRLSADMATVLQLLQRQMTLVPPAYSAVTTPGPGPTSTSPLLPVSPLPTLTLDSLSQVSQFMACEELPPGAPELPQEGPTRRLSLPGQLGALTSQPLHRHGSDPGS
As for `Cc1nc(SCC(=O)N(CC(C)C)C2CCS(=O)(=O)C2)c2ccccc2n1` (centres unmarked), the “hERG current change (%, negative = inhibition) at 1uM” value worked out at 8.07%.

As to `Cn1c(=O)c2c(nc(N3CCCCCC3)n2CC(O)COc2ccc(Cl)cc2)n(C)c1=O` (centres unmarked), the “hERG current change (%, negative = inhibition) at 1uM” value is on record as 6.1%.

Consider `Cc1cccc(C(=O)Nc2ccc(Cl)cc2C(=O)c2ccccc2)c1`, for which the “hERG current change (%, negative = inhibition) at 1uM” value came out at 5.99%.

For `CC(C)Cn1cc(C(=O)NCc2cccs2)c2c3ccccc3n(C)c2c1=O`, the “hERG current change (%, negative = inhibition) at 1uM” value came out at 4.2%.

Consider `CCCCn1c(SCC(=O)N2CCOCC2)nc2c1c(=O)n(C)c(=O)n2C`, for which the “hERG current change (%, negative = inhibition) at 1uM” value is listed as 6.81%.

For the compound `COc1ccc(NC(=O)COC(=O)CNS(=O)(=O)c2ccc(C)cc2)c(OC)c1`, the “hERG current change (%, negative = inhibition) at 1uM” value is listed as 15.6%.

Consider `CN(c1ccc(O)cc1)c1nc(-c2cccnc2)cs1`, for which the “hERG current change (%, negative = inhibition) at 1uM” value was 10.2%.

Consider `COCCNC(=O)/C(C#N)=C/c1c(N2CCCCCC2)nc2ccccn2c1=O`, for which the “hERG current change (%, negative = inhibition) at 1uM” value came out at 8.17%.

For the compound `CC1(c2ccccc2)NC(=O)N(CC(=O)Nc2cc3c(cc2Br)OCCO3)C1=O` (centres unmarked), the “hERG current change (%, negative = inhibition) at 1uM” value was 0.314%.

For the compound `CCCCCCC(=O)NNC(=O)c1c(O)c2ccccc2n(CC)c1=O`, the “hERG current change (%, negative = inhibition) at 1uM” value is listed as -11.9%.

For the compound `COc1cccc(N2CCN(C(=O)c3cc4c(OC)c(OC)c(OC)cc4[nH]3)CC2)c1`, the “hERG current change (%, negative = inhibition) at 1uM” value is recorded as 7.79%.

On to `COc1cc(C)ccc1OCCCOc1cc(C)ccc1Cl`, for which the “hERG current change (%, negative = inhibition) at 1uM” value came out at 0.631%.

On to `COn1c(-c2ccc(Cl)cc2)nc2ncccc21`, for which the “hERG current change (%, negative = inhibition) at 1uM” value is recorded as 7.93%.

Take `CN(CC(=O)Nc1ccc(N2CCOCC2)cc1)C(=O)c1ccc(O)c(Cl)c1`: the “hERG current change (%, negative = inhibition) at 1uM” value was 10.4%.

On to `Clc1ccc(-c2csc(N/N=C/c3cccnc3)n2)c(Cl)c1`, for which the “hERG current change (%, negative = inhibition) at 1uM” value is given as -3.48%.

As to `O=C(OCc1nc2ccccc2s1)c1cccs1`, the “hERG current change (%, negative = inhibition) at 1uM” value worked out at 8.17%.

With `O=C(CCCc1nc2ccccc2s1)NCc1ccc(F)cc1`, the “hERG current change (%, negative = inhibition) at 1uM” value was -7.71%.

With `COc1ccc(N2CCN(C(=O)CN(c3ccccc3)S(C)(=O)=O)CC2)cc1`, the “hERG current change (%, negative = inhibition) at 1uM” value was 4.23%.

Take `CCC(Sc1nc2ncccc2[nH]1)C(=O)NC1CCCC1` (centres unmarked): the “hERG current change (%, negative = inhibition) at 1uM” value is listed as 4.14%.

Regarding `CCN(CC)c1ccc(NC(=O)CCCCCN2C(=O)c3ccccc3C2=O)cc1`, the “hERG current change (%, negative = inhibition) at 1uM” value is -0.349%.

With `CC(C)CC(NC(=O)c1ccc(Cl)cc1)C(=O)O` (centres unmarked), the “hERG current change (%, negative = inhibition) at 1uM” value was 9.23%.

Regarding `COc1ccc(OCCCc2c(C)n[nH]c2C)cc1`, the “hERG current change (%, negative = inhibition) at 1uM” value is -4.19%.

For `CCCCCOC(=O)c1ccc(NC(=O)c2cccc(NC(=O)c3ccccc3C(=O)O)c2)cc1`, the “hERG current change (%, negative = inhibition) at 1uM” value was 15.3%.

As to `COc1cc2c(cc1NC(=O)COC(=O)[C@@H](NC(=O)c1ccccc1F)C(C)C)oc1ccccc12`, the “hERG current change (%, negative = inhibition) at 1uM” value came to 8.03%.

As to `CC(=O)c1cc2c(cc1NS(=O)(=O)c1ccc(C)cc1)OCCO2`, the “hERG current change (%, negative = inhibition) at 1uM” value amounted to 11.2%.

`CCOC(=O)c1ccc([N+](=O)[O-])cc1NC(C)=O`: the “hERG current change (%, negative = inhibition) at 1uM” value is 6.31%.

For `S=C1NC2(CCCCC2)NC12CCCCC2`, the “hERG current change (%, negative = inhibition) at 1uM” value is 14%.

`COc1ccccc1-n1nnnc1SCC(=O)NC1CC1`: the “hERG current change (%, negative = inhibition) at 1uM” value was 8.58%.

In the case of `COC(=O)C1CN(C(=O)COc2ccc(C)cc2)c2ccccc2O1` (centres unmarked), the “hERG current change (%, negative = inhibition) at 1uM” value is listed as 6.14%.

`CCN(CC)S(=O)(=O)c1cccc(-c2nnc(SC(C)C(=O)NCCC3=CCCCC3)o2)c1` (centres unmarked): the “hERG current change (%, negative = inhibition) at 1uM” value was 3.83%.

Regarding `Cc1cccc(CN2CCCC(C(=O)c3cccc(OC(C)C)c3)C2)n1` (centres unmarked), the “hERG current change (%, negative = inhibition) at 1uM” value is -4.82%.

Take `CCN(CC)C(=O)CSc1nc(-c2ccccc2)ccc1C#N`: the “hERG current change (%, negative = inhibition) at 1uM” value is given as -5.5%.

In the case of `N#CC(c1nc2ccccc2nc1OCCO)S(=O)(=O)c1ccccc1` (centres unmarked), the “hERG current change (%, negative = inhibition) at 1uM” value turned out to be 9.51%.

Take `C=CCn1c(SCC(=O)N(CCC)C2CCS(=O)(=O)C2)nnc1-c1ccccc1OC` (centres unmarked): the “hERG current change (%, negative = inhibition) at 1uM” value was 5.64%.

As for `CCN1C(=O)N[C@@H](CCc2ccccc2)[C@H](C(=O)OC)[C@H]1C`, the “hERG current change (%, negative = inhibition) at 1uM” value is reported as 11.1%.

Regarding `COc1ccc(CC(=O)N2CCN(S(=O)(=O)c3cccs3)CC2)cc1OC`, the “hERG current change (%, negative = inhibition) at 1uM” value came to 9.13%.

Regarding `CCn1cc([N+](=O)[O-])c(C(=O)N2CCN(C(=O)c3ccco3)CC2)n1`, the “hERG current change (%, negative = inhibition) at 1uM” value was found to be 8.39%.

As to `O=C(CCCn1nnc(-c2cccnc2)n1)c1ccc(F)cc1`, the “hERG current change (%, negative = inhibition) at 1uM” value is recorded as 2.2%.

As for `CN(C)C1(CNC(=O)c2ccc(Cl)c(S(=O)(=O)NCc3ccco3)c2)CCCCC1`, the “hERG current change (%, negative = inhibition) at 1uM” value is recorded as -4.07%.

Regarding `CCCNC(=O)COC(=O)/C=C/c1ccc(C)o1`, the “hERG current change (%, negative = inhibition) at 1uM” value is 12.2%.

For the compound `COc1ccc(C(=O)Nc2ccc(N3CCCCCC3)cc2)cc1S(=O)(=O)N1CCOCC1`, the “hERG current change (%, negative = inhibition) at 1uM” value was 3.39%.

Take `O=C(NC(=S)Nc1ccc(NC(=O)c2ccco2)cc1)c1ccccc1`: the “hERG current change (%, negative = inhibition) at 1uM” value is on record as 12.2%.

`Cc1ccc(S(=O)(=O)NCC(=O)NCC(=O)N(C)Cc2ccc3ccccc3c2)cc1C`: the “hERG current change (%, negative = inhibition) at 1uM” value is listed as 11.1%.

For `O=C(Nc1cccc2ccccc12)N1CCN(c2ccccc2)CC1`, the “hERG current change (%, negative = inhibition) at 1uM” value is listed as 9.57%.

With `O=C(NCc1ccc(Cl)cc1)C1CCN(S(=O)(=O)c2cccnc2)CC1`, the “hERG current change (%, negative = inhibition) at 1uM” value is on record as -3.39%.

Turning to `O=C(Cn1nc(Cc2ccncc2)c2ccccc2c1=O)N1CCc2ccccc2C1`, the “hERG current change (%, negative = inhibition) at 1uM” value is -14.3%.

For the compound `CCCCN(C)CCNC(=O)c1cc2c(=O)[nH]c3ccccc3c2n1C`, the “hERG current change (%, negative = inhibition) at 1uM” value is listed as 6.51%.

Consider `CCNC(=O)CSc1nc2cc([N+](=O)[O-])ccc2n1-c1cccc(C(F)(F)F)c1`, for which the “hERG current change (%, negative = inhibition) at 1uM” value is -10.7%.

Take `Cc1cc(C(F)F)n2nc(C(=O)O)nc2n1`: the “hERG current change (%, negative = inhibition) at 1uM” value is 11.7%.

As to `CCOc1ccccc1NC(=O)C1Cc2ccccc2CN1S(C)(=O)=O` (centres unmarked), the “hERG current change (%, negative = inhibition) at 1uM” value is reported as 13.6%.

For `Cn1cc(Br)c(C(=O)NN2C(=O)C3C(C2=O)C2C=CC3C23CC3)n1` (centres unmarked), the “hERG current change (%, negative = inhibition) at 1uM” value is reported as 26.5%.

Take `CC(C)O.COc1cc(/C=N/NC(=O)c2ccc(O)cc2)ccc1Oc1ccc([N+](=O)[O-])cn1`: the “hERG current change (%, negative = inhibition) at 1uM” value came to 6.25%.

For the compound `Cl.OC(COCCOc1ccc(Br)cc1)CN1CCCCC1` (centres unmarked), the “hERG current change (%, negative = inhibition) at 1uM” value is reported as -10.6%.

In the case of `CC1CCN(Cc2cc(=O)oc3ccc(C(C)C)cc23)CC1.Cl`, the “hERG current change (%, negative = inhibition) at 1uM” value was found to be 15.9%.

With `CCCOc1ccc(N2C(=O)CC(N(CCc3ccc(OC)cc3)C(=O)/C=C/C(=O)O)C2=O)cc1` (centres unmarked), the “hERG current change (%, negative = inhibition) at 1uM” value amounted to 11.2%.

Take `COc1ccccc1C(=O)NCC(c1ccco1)N1CCc2ccccc21` (centres unmarked): the “hERG current change (%, negative = inhibition) at 1uM” value came out at 6.35%.
